The source of these data is patent US20250236679A1 (Chugai, published 2025).

This assay concerns the target T1, human DLL3 expressed on cells (human DLL3/BaF3) (human, UniProt Q9NYJ7 27-618).
T1 construct: Full-length human DLL3 on the membrane of transformed Ba/F3 cells; The ADCC assays also used NCI-H1184 small-cell lung cancer cells that express DLL3; also called Delta-like 3; NM_016941
T1 sequence: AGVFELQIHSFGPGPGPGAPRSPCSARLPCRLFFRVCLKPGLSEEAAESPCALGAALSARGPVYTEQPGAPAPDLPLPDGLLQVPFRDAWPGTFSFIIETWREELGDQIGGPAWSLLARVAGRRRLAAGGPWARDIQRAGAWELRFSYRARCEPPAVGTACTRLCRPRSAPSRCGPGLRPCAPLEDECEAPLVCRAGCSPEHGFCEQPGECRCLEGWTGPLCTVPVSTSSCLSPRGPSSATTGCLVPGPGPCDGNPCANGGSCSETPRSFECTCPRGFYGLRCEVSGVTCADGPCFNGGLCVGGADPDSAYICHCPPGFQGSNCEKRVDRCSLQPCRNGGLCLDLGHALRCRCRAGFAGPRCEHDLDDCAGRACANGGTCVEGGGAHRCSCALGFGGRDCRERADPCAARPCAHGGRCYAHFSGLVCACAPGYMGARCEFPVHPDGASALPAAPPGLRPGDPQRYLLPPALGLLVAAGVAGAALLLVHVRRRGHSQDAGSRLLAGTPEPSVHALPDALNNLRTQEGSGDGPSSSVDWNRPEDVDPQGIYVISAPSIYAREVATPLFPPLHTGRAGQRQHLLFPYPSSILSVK
Nature of the assay: flow cytometry on human DLL3/BaF3 cells, chimeric antibody 1 µg/ml. As for the experimental part: The chimeric antibody in the culture supernatant of COS-7 was confirmed to bind to the human DLL3 protein by flow cytometry and ELISA. The chimeric antibody concentration in the culture supernatant of COS-7 was calculated by sandwich ELISA. In this concentration calculation, a human chimeric antibody known for its concentration was used as a standard. The chimeric antibody (final concentration: 1 μg/ml) was added to human DLL3/BaF3 cells suspended in a FACS buffer (PBS containing 1% fetal bovine serum). After incubation at 4° C. for 30 minutes and washing, the cells were reacted with FITC-labeled anti-human antibodies (Beckman Coulter, Inc.), and the binding of the chimeric antibody was analyzed using a flow cytometer FACSCalibur. […] Human DLL3-Fc was immobilized on a Nunc immunoplate, and the binding of each chimeric antibody to the immobilized protein was analyzed. […] The absorbance was determined. […]
COS-7 cells were transfected with the DL306 chimeric antibody expression vector and allowed to transiently express the chimeric antibody. […] The chimeric antibody concentration in the culture supernatant of COS-7 was calculated by sandwich ELISA. […] After incubation at 4° C. for 30 minutes and washing, the cells were reacted with FITC-labeled anti-human antibodies (Beckman Coulter, Inc.), and the binding of the chimeric antibody was analyzed using a flow cytometer FACSCalibur.
A general note: In flow cytometry, cells or beads pass a laser one at a time.

B1: DL306 human chimeric antibody (antibody, human IgG1, kappa)
heavy: EVQLQQSGPELVKPGASVKMSCRASGYTFTDYYMKWVKQSHGKSLEWIGDINPNNGDTFYNQKFKGKATLTIDKSSSTAYMQLNSLTSDDSAVYYCARDGNYAYFDYWGQGTTLTVSS[in this place human IgG1 constant region]
light: DIVLTQSPASLAVSLGQRATISCRASKSVSTSGYSYMHWYQQKPGQPPKLLIFLASNLESGVPARFSGSGSGTDFTLNIHPVEEEDAATYYCQHSRHLPWTFGGGTKLEIKRTVAAPSVFIFPPSDEQLKSGTASVVCLLNNFYPREAKVQWKVDNALQSGNSQESVTEQDSKDSTYSLSSTLTLSKADYEKHKVYACEVTHQGLSSPVTKSFNRGEC
notes: Mouse variable regions with human IgG1 constant regions; also called chimeric antibody DL306; DL306 chimeric antibody
With B1, the binding result is “binds”.
